Here are results for 24 compounds from article PMC4336329 (PLoS ONE, 2015).

Among all 310,000 compounds or so, about 2,200 (0.71%) showed an effect of 50% or more. The effect is printed as a negative number. The list shows a part of the results.

The target in this test is human ether-à-go-go-related gene (hERG) potassium channel (human, UniProt Q12809). Briefly: primary screen, population patch clamp on CHO cells stably expressing hERG.
Chain of human ether-à-go-go-related gene (hERG) potassium channel (Q12809 whole entry, looked up): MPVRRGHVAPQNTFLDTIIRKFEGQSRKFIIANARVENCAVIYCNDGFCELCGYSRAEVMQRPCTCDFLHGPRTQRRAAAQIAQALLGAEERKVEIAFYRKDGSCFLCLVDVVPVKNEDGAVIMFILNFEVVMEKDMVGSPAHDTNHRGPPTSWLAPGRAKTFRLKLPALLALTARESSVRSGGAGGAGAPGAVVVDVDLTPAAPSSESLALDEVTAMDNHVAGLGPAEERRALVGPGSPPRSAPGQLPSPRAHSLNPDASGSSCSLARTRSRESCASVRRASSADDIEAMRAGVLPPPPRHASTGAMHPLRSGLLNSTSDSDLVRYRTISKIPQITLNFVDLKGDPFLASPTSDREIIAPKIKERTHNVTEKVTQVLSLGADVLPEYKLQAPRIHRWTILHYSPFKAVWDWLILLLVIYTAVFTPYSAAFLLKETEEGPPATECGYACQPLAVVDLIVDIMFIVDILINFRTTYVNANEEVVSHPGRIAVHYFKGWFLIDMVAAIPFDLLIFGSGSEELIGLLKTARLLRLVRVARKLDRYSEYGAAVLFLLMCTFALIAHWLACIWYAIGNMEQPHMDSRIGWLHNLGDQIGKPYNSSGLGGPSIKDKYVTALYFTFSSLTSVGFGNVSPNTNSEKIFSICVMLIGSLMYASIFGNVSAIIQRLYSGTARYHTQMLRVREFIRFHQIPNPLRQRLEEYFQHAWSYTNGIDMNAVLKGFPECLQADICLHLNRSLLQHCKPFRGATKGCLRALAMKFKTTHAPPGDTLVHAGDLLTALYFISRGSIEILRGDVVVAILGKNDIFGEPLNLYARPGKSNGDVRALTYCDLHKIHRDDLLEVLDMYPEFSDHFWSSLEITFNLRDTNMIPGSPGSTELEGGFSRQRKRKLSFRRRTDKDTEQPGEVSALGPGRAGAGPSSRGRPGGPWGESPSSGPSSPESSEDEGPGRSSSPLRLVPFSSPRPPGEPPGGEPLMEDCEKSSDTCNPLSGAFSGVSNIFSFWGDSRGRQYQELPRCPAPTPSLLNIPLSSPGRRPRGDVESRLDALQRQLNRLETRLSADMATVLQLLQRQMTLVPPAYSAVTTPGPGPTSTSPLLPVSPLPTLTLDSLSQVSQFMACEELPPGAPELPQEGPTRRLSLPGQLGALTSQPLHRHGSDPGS
Regarding `COc1ccc(CN(C(=O)/C=C/C(=O)c2ccc(OC)cc2O)C(C(=O)NC2CCCCC2)c2ccncc2)cc1` (stereo not drawn), the “hERG current change (%, negative = inhibition) at 1uM” value was 2.85%.

On to `Cc1ccc(Oc2ccc(/C=N/O)cn2)cc1`, for which the “hERG current change (%, negative = inhibition) at 1uM” value was found to be 7.97%.

Regarding `Cc1ccc(Oc2nc(CN3CCOCC3)nc3sc4c(c23)CCC(C)C4)cc1C` (stereo not drawn), the “hERG current change (%, negative = inhibition) at 1uM” value is reported as 7.13%.

Turning to `COC(=O)c1cc2c(=O)n3ccccc3nc2n(Cc2cccnc2)c1=N`, the “hERG current change (%, negative = inhibition) at 1uM” value was -51.5%.

In the case of `COc1ccc(/C=C2\SC(=O)N(CCC(=O)NC3CCS(=O)(=O)C3)C2=O)cc1` (stereo not drawn), the “hERG current change (%, negative = inhibition) at 1uM” value is 13.9%.

Consider `O=C(O)CSC(C(=O)Nc1ccc(Br)cc1)c1ccc(Cl)cc1` (stereo not drawn), for which the “hERG current change (%, negative = inhibition) at 1uM” value is 10.8%.

For the compound `Cc1ccc(C)c(NC(=S)NNC(=O)c2sccc2C)c1`, the “hERG current change (%, negative = inhibition) at 1uM” value was -0.962%.

On to `O=C(N/N=C/c1cccc(O)c1)c1cc(C2CC2)nc2ccccc12`, for which the “hERG current change (%, negative = inhibition) at 1uM” value turned out to be 10.4%.

As for `Cc1nc2ccccc2c(=O)n1NC(=O)c1ccc([N+](=O)[O-])cc1Cl`, the “hERG current change (%, negative = inhibition) at 1uM” value is 5.29%.

Turning to `C=CCN=C1CC(C)(C)CC(=O)/C1=C(\O)CCCN1C(=O)c2ccccc2C1=O`, the “hERG current change (%, negative = inhibition) at 1uM” value is reported as -1.29%.

Consider `COc1ccccc1CC(=O)N1CCOCC1`, for which the “hERG current change (%, negative = inhibition) at 1uM” value came to 18.6%.

Regarding `Oc1ccc(Nc2nc(-c3ccccc3F)nc3ccccc23)cc1`, the “hERG current change (%, negative = inhibition) at 1uM” value was determined as 12.2%.

Consider `CSc1ccc(CN2CCN(C(=O)c3ccncc3)CC2)cc1`, for which the “hERG current change (%, negative = inhibition) at 1uM” value was -0.743%.

As for `COc1cccc(CN(C)C(=O)CNC(=O)c2ccc(-c3ccccc3)cc2)c1OC`, the “hERG current change (%, negative = inhibition) at 1uM” value was 14.3%.

On to `O=C(OC(C(=O)Nc1ccc(Cl)cc1C(F)(F)F)c1ccccc1)c1c(Cl)cccc1Cl` (stereo not drawn), for which the “hERG current change (%, negative = inhibition) at 1uM” value came out at 9.62%.

As for `COC(=O)CCC(=O)Nc1sc(Cc2ccccc2)c(C)c1C(N)=O`, the “hERG current change (%, negative = inhibition) at 1uM” value came to 15%.

With `CCOC(=O)N1CCC(=NNc2ccc(S(N)(=O)=O)cc2[N+](=O)[O-])CC1`, the “hERG current change (%, negative = inhibition) at 1uM” value is on record as -6.16%.

Turning to `CCCCn1c(N)c(Sc2ccccc2)c(=O)[nH]c1=O`, the “hERG current change (%, negative = inhibition) at 1uM” value is given as 4.27%.

Turning to `COc1ccc(N(CC(=O)Nc2cc(C)on2)S(=O)(=O)c2ccc(Cl)cc2)cc1`, the “hERG current change (%, negative = inhibition) at 1uM” value amounted to 12.1%.

Regarding `CC(C)Nc1nc(NC(C)C)nc(C(N)=O)n1`, the “hERG current change (%, negative = inhibition) at 1uM” value was determined as 4.9%.

As for `COc1ccc(CNC(=O)N2CCN(c3ccc(F)cc3)CC2)cc1Cl`, the “hERG current change (%, negative = inhibition) at 1uM” value was found to be 5.88%.

For `O=C(Cc1ccc(Cl)cc1)Nc1ccc(CN2CCCCC2)cc1`, the “hERG current change (%, negative = inhibition) at 1uM” value was -24.2%.

`O=C(O)Cn1c(-c2ccccn2)nc2ccccc21`: the “hERG current change (%, negative = inhibition) at 1uM” value stood at 3.01%.

For `Cc1noc(C)c1CN1C(=O)NC(Cc2ccccc2)(Cc2ccccc2)C1=O`, the “hERG current change (%, negative = inhibition) at 1uM” value amounted to 10.5%.
